Measurements as given in publication PMC3225393.
These are yes or no findings as the source states them, for the method shown. For some assays here: Binding seen in cells or lysates may run through a third protein. Some results given as binding are weak or reduced against the parent protein; the word gives no strength. Blank lines part the entries; values can stand above or below the substance they belong to.

By UniProt entry, the sequences of proteins in these tests, tags left out. Where a name states a change or a piece, a line headed by the entry shows the natural chain unless it says otherwise. Chains listed by the source or under a name are the forms on record and can include a tag or linker. Residues count along the entry.
UniProt P14618: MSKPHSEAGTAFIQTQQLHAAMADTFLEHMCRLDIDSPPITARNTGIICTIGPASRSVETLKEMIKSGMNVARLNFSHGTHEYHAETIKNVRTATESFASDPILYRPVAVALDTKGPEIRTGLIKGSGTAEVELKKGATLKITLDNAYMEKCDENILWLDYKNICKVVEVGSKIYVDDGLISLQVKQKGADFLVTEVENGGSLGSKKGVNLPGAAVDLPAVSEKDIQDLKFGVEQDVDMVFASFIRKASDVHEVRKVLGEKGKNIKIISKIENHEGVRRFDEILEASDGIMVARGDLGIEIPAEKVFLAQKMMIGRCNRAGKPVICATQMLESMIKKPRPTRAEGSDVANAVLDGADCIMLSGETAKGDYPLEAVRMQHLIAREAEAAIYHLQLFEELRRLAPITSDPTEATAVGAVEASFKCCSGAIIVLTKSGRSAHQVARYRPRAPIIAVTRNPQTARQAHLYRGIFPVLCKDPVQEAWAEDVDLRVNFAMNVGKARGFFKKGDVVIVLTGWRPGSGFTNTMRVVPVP
GST-PKM2(1-218): residues 1-218 of P14618
GST-PKM2(1-43): residues 1-43 of P14618
GST-PKM2(44-116): residues 44-116 of P14618
GST-PKM2(117-218): residues 117-218 of P14618
GST-PKM2(219-389): residues 219-389 of P14618
GST-PKM2(390-531): residues 390-531 of P14618
GST-PKM2(390–531/C474A) (P14618, form named): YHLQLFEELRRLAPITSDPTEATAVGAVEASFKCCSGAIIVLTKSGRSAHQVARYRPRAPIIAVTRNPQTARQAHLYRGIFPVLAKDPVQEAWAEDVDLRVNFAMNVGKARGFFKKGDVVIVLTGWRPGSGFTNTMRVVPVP
GST-PKM2(390-531/K433E) (P14618, form named): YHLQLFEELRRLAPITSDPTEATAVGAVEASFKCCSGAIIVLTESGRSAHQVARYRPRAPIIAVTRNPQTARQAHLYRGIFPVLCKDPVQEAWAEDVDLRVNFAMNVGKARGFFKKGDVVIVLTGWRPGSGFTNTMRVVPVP
GST-PKM2(117-218) C152A (P14618, form named): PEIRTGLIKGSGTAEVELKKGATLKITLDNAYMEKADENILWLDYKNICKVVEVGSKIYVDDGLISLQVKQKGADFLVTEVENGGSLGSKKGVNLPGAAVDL
GST-PKM2(117-218) C165A (P14618, form named): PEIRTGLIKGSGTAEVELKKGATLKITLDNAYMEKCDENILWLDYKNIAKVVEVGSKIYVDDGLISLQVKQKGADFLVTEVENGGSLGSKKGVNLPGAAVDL
GST-PKM2(390–531) C423A (P14618, form named): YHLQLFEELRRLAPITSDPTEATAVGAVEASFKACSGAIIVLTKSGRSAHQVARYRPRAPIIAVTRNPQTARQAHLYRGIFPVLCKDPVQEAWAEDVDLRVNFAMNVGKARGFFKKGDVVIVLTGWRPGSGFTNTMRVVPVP
GST-PKM2(390–531) C424A (P14618, form named): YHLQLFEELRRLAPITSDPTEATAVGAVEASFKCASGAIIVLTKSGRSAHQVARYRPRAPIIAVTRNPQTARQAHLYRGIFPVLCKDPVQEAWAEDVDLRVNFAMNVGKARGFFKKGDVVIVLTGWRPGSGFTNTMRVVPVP
UniProt P15941, residues 1182-1255: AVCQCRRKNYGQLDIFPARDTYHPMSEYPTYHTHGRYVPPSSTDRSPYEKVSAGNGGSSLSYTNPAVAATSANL

Assays:
[1] = biological target: GST-PKM2(390-531) (human) (UniProt P14618); assay: pull-down; MUC1-CD proteins (EGFR-phosphorylated or not) incubated with GST and GST-PKM2 deletion or point mutants; adsorbates to glutathione beads blotted with anti-MUC1-C; both purified
[2] = biological target: GST-PKM2(390–531/C474A) (human) (UniProt P14618); assay: as above
[3] = biological target: GST-PKM2(390-531/K433E) (human) (UniProt P14618); assay: as above
GST-PKM2(1-218) (human) = GST-PKM2(1-218) (human) (UniProt P14618); assay: as above
GST-PKM2(1-43) (human) = GST-PKM2(1-43) (human) (UniProt P14618); assay: as above
[4] = biological target: GST-PKM2(117-218) C152A (human) (UniProt P14618); assay: as above
[5] = biological target: GST-PKM2(219-389) (human) (UniProt P14618); assay: as above
GST-PKM2(44-116) (human) = GST-PKM2(44-116) (human) (UniProt P14618); assay: as above
[6] = biological target: GST-PKM2(117-218) C165A (human) (UniProt P14618); assay: as above
[7] = biological target: GST-PKM2(117-218) (human) (UniProt P14618); assay: as above
[8] = biological target: GST-PKM2(390–531) C423A (human) (UniProt P14618); assay: as above
[9] = biological target: GST-PKM2(390–531) C424A (human) (UniProt P14618); assay: as above
GST-MUC1-CD (human) [10] = biological target: GST-MUC1-CD (human) (UniProt P15941); assay: pull-down; ZR-75-1 cell lysates incubated with GST, GST-MUC1-CD and GST-MUC1-CD deletion mutants; adsorbates blotted with anti-PKM2; only the target purified
GST-MUC1-CD (human) [11] = biological target: GST-MUC1-CD (human) (UniProt P15941); assay: pull-down; purified recombinant His-tagged PKM2 incubated with GST, GST-MUC1-CD proteins (deletion and Cys mutants, EGFR-phosphorylated or not) on glutathione beads; adsorbates blotted; both purified

- binding [1]: binds
- binding [2]: binds
- binding [3]: binds
- binding (GST-PKM2(1-218) (human)): binds
Substance: EGFR-phosphorylated MUC1-CD (p-MUC1-CD) (from UniProt P15941 1182-1255) (domain or fragment)

- binding [1]: binds
- binding (GST-PKM2(1-43) (human)): no binding
- binding [4]: binds
- binding [2]: binds
- binding [5]: no binding
- binding (GST-PKM2(44-116) (human)): no binding
- binding [6]: no binding
- binding [7]: binds
- binding (GST-PKM2(1-218) (human)): binds
- binding [8]: binds
- binding [9]: binds
Substance: MUC1-CD (soluble, incubated with GST-PKM2 proteins) (from UniProt P15941 1182-1255) (domain or fragment)

- binding (GST-MUC1-CD (human) [10]): binds
Substance: pyruvate kinase M2 (PKM2), endogenous in ZR-75-1 cells (from UniProt P14618 1-531)

- binding (GST-MUC1-CD (human) [11]): binds
Substance: recombinant His-tagged PKM2 (from UniProt P14618 1-531)
